Experimental findings from the antibiotic and cytotoxicity screens of Wong et al. (2023) are described below.

Molecules are shown by their SMILES. The list shows a part of the results.

One test concerns HSkMC. Kind of test: cytotoxicity call (relative viability < 0.9). Conditions: 10 µM.
The test system of a further test is HepG2. Description: cytotoxicity call (relative viability < 0.9). The following applies: 10 µM.
In the next test the test system is S. aureus RN4220. Kind of test: growth inhibition call (relative growth <= 0.2). Conditions: 50 µM.

Turning to `COc1ccc(S(=O)(=O)N(C)C[C@H]2Oc3c(NS(=O)(=O)c4cccs4)cccc3C(=O)N([C@@H](C)CO)C[C@@H]2C)cc1`, the cytotoxicity call with HSkMC and in the test on HepG2 was “inactive” throughout. The growth inhibition call with S. aureus RN4220 is “inactive”.
Regarding `O=c1c(O)c(-c2ccccc2)oc2ccccc12`, the cytotoxicity call in the test on HSkMC and with HepG2 was “inactive” throughout. Besides, the growth inhibition call in the test with S. aureus RN4220 was “inactive”.
Regarding `C[C@@H]1CN([C@H](C)CO)S(=O)(=O)c2ccc(-c3ccncc3)cc2O[C@H]1CN(C)C(=O)c1ccc2c(c1)OCO2`, the cytotoxicity call in the test on HSkMC and in the test on HepG2 was “inactive” in each case. In the test on S. aureus RN4220, the growth inhibition call was “inactive”.
As to `Cc1ccccc1S(=O)(=O)N1C[C@H](O)COC[C@@H]2O[C@@H](CC(=O)N3CCN(C)CC3)CC[C@H]21`, the cytotoxicity call in the test on HSkMC (human skeletal muscle cells) and with HepG2 was “inactive” throughout. For the same molecule, the growth inhibition call in the test on S. aureus RN4220 was “inactive”.
Take `CC1=C(/C=C/C(C)=C/C=C/C(C)=C/C=C/C=C(C)/C=C/C=C(C)/C=C/[C@@]23O[C@]2(C)C[C@@H](O)CC3(C)C)C(C)(C)C[C@H](O)C1`: the cytotoxicity call with HSkMC and in the test on HepG2 was “inactive” in each case. Besides, in the test on S. aureus RN4220, the growth inhibition call was “inactive”.
For the molecule `Cn1c(=O)c2[nH]c(-[n+]3ccc(C(=O)O)cc3)nc2n(C)c1=O`, the cytotoxicity call in the test with HSkMC is “inactive”. In the test with HepG2, the cytotoxicity call is “active”. The growth inhibition call in the test with S. aureus RN4220 is “inactive”.
Turning to `Cn1nc(O)c(=O)[nH]c1=S`, the cytotoxicity call in the test with HSkMC and with HepG2 was “inactive” throughout. The growth inhibition call in the test on S. aureus RN4220 was “inactive”.
